Test results reported in PubChem BioAssay (NCI).
Where “and” joins values, the source holds several entries; their conditions need not be identical. Equal values may be shown once.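 Results reflect a 48-hour exposure of cells in 96-well plates to compound at five concentrations. GI50 is the concentration that inhibits growth by half. The concentration for full growth arrest is given as TGI.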

The compounds below were run on NCI-H322M lung (assay: NCI tumour cell line growth inhibition, 48 h).

SMILES | GI50 | TGI
CCc1c[nH]c2ncnc(N3CC[C@](N)(CNC(=O)c4ccc(F)cc4F)C3)c12 | 28.5 µM | > 100 µM
CCOC(=O)C1=C(O)c2c(OC)ccc(OC)c2C(=O)C1=O | – | > 100 µM
N#Cc1c2c(c(Nc3ccc(Cl)cc3)n3c1nc1ccccc13)CCCC2 | – | > 100 µM
O=C1COc2c(CCNCCN(C(=O)CCNCCc3ccc(Cl)c(Cl)c3)C3CCCCC3)ccc(O)c2N1 | 15.6 µM | 29.8 µM
NNC(=O)COc1nc(-c2cccs2)nc2ccc(I)cc12 | – | 44.1 µM
CC(C)c1nc(Cl)c(Cl)c(Cl)n1 | – | 22.6 µM
COc1cc(-c2nn(-c3cccc(NC(=O)c4cccc(C(F)(F)F)c4)c3)cc2-c2ccncc2)ccc1Cl | 10.8 µM | > 50 µM
COC(=O)CCSC(=O)Nc1ccccc1Cl | – | > 100 µM
CCOC(=O)N/N=C(/N)Cc1ccc(Cl)cc1 | – | > 100 µM
COc1cc(CC2C(=O)OCC2Cc2ccc(OC)c(OC)c2)ccc1O (centres undefined) | – | > 100 µM
CNC(=O)N(C)C(=O)c1ccccc1C(=O)N(C)C(=O)NC | – | > 10 µM
O=C(CCc1ccccc1)NCCc1ccc(O)c(O)c1 | – | > 100 µM
Cc1c2cc[n+](C)cc2c(C)c2c1[nH]c1ccc(Oc3ccccc3)cc12 | 18.1 µM and 5.61 µM | > 100 µM and 29.2 µM
O=C(Nc1cccc(C(F)(F)F)c1)Nc1cc(S(=O)(=O)NC2CC2)ccc1-c1ccsc1 | 6.03 µM | 21.3 µM
Nc1nc(N)c(-c2ccccc2)c(C(=O)Nc2nccs2)n1 | – | > 100 µM
CCCCCCCCCCCCCCCC(=O)NCC(OCC)OCC | – | > 100 µM
NS(=O)(=O)C1CCCCC1C(=O)NNC(=O)C(=O)Nc1nc(=S)[nH][nH]1 (centres undefined) | – | > 100 µM
O=C1C[C@@]23CCC4(CC2=CCC[C@H]3O1)OCCO4 | – | > 100 µM
CC(=O)OCc1cc2c(s1)C(=O)c1sccc1C2=O | – | 1.71 µM

SMILES | GI50 | TGI
CCCCCNC(=O)OC1CCn2c1nc1c2C(=O)C(C)=C(N2CC2)C1=O (centres undefined) | – | 4.62 µM
Clc1ccc(N=CNc2ccc(-c3nc4ccccc4[nH]3)cc2)cc1 | 0.916 µM | > 100 µM
CC(=O)Oc1cc(OC(C)=O)c2c(c1C)CC[C@@H]1[C@@H]2CC[C@]2(C)[C@@H](OC(C)=O)CC[C@@H]12 | – | 31.3 µM
NS(=O)(=O)c1cc2c(cc1Cl)NC(C(=O)NNC(=O)c1ccncc1)=NS2(=O)=O | – | > 100 µM
Brc1ccc2c(c1)-c1ccccc1C1=NCCN12 | 1.39 µM | 4.75 µM
CO[C@@H](c1ccccc1)[C@H](O)[C@@](O)(c1ccccc1)P(=O)(OC)OC | – | > 100 µM
Cc1c(-c2ccc(N3CCc4cccc(C(=O)Nc5nc6ccccc6s5)c4C3)nc2C(=O)O)cnn1CC12CC3CC(CC(C3)C1)C2 | 4.2 µM | 18.3 µM
Cc1c(C(=O)C/C(=N/NC(=O)CC#N)C(N)=O)[n+](=O)c2ccccc2n1[O-] | – | > 100 µM
O=C(CO[N+](=O)[O-])OCC(=O)c1ccccc1 | – | > 100 µM
O=C(COC(=O)[C@H](C[Se][Se]C[C@H](NC(=O)c1ccc(Br)cc1F)C(=O)OCC(=O)c1ccc(F)cc1)NC(=O)c1ccc(Br)cc1F)c1ccc(F)cc1 | 0.316 µM | 4.82 µM
CC(=O)CC(=O)N1CCOC1=O | – | > 10 µM
O=C1COc2cc3c(cc2N1)SCC(=O)N3 | – | > 100 µM
CCCCc1c2c(nc3c1CC/C(=C\c1ccccc1)C3=O)CCCC2 | – | 29.3 µM
CC(C)[C@H](NC(=O)OCc1ccccc1)C(=O)N[C@H](/C=C/C(=O)OC(C)(C)C)CO | – | > 100 µM
CCc1nc2cc(F)ccc2[nH]c1=O | – | > 100 µM
COc1cccc2c(Nc3ccc(C(=O)NCCN4CCNCC4)cc3)cc(-c3ccccc3)nc12 | 51.7 µM | > 100 µM
Cn1c(=O)c(Oc2ccc(F)cc2F)cc2cnc(NC3CCC(O)CC3)nc21 (centres undefined) | > 25 µM | > 25 µM
O=C(NCc1cccnc1)c1ccc([N+](=O)[O-])o1 | 2.97 µM | 7.62 µM
